Results reported in PMC6919601, “Identification of Plasmodium dipeptidyl aminopeptidase allosteric inhibitors by high throughput screening” (PLoS ONE, 2019).
Where “and” joins values, the source holds several entries; their conditions need not be identical. Identical values can stand only once. Screen size: about 110,000 compounds; about 230 (0.21%) showed an effect of 50% or more. The list shows a part of the results.

Each molecule was assayed against DPAP1 (Plasmodium falciparum, UniProt Q8IIJ9) (assay: primary screen, percent inhibition; read by cleavage of a fluorogenic dipeptide substrate; higher = more effect of the substance).
Design: species or system P. falciparum D10 trophozoite lysates; single well
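Further: 30 min substrate incubation versus DMSO and 10 µM JCP410 controls.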

Sequence of DPAP1 (Q8IIJ9 whole entry, looked up): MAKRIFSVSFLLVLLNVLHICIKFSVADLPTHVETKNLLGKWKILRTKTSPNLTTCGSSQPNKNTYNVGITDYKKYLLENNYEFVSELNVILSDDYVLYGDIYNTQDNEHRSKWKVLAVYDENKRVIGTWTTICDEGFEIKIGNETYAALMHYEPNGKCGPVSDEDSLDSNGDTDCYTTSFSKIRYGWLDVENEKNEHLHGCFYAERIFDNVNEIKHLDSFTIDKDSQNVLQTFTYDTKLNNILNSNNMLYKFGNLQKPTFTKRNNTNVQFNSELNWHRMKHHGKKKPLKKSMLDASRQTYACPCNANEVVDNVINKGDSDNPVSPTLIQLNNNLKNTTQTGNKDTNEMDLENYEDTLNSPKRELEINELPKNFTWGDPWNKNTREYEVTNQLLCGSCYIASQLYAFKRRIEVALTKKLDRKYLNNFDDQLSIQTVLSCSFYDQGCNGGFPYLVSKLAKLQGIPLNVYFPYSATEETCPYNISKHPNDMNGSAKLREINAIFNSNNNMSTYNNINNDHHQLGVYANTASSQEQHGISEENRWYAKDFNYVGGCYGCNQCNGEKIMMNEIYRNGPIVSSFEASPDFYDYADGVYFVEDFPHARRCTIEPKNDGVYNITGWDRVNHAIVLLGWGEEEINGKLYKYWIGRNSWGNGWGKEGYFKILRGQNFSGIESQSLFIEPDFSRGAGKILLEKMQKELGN

SMILES	% Inhibition @ 10 uM
O=C(CCC(=O)NC1CCCCC1)Nc1nc(-c2cc3ccccc3oc2=O)cs1	0.569%
Cc1ccc(C(=O)c2ccc(O)cc2O)cc1	-3.83%
Cc1ccc(-c2nnc3sc(-c4cc5ccccc5o4)nn23)cc1	-2.21%
COc1ccc(Cn2c(C(=O)O)c(CNCc3ccc(C)cc3)c3ccc(C)cc32)cc1	3.47%
CCCC(=O)NCCCc1nc2ccccc2n1Cc1ccccc1Cl	-0.551%
CCN1CCN(Cc2cccc(Br)c2)CC1	-1.93%
O=C(NCC1CCCO1)c1cccc(Br)c1 (stereo not shown)	1.26%
CCC(=O)c1c(O)ccc2c(C)cc(=O)oc12	-1.46%
COC(=O)C1=NNC(c2ccccc2)(c2ccccc2)C1	2.58%
COC(=O)C1=CN(C)C=C(C(=O)OC)C1c1cc(OC)ccc1OC	0.219%
COc1ccc(CNC(=O)c2ccc(Br)cc2)cc1	0.215%
Cn1c2ccccc2c2nn3c(S)nnc3nc21	0.884%
OC1CCCN(CCc2ccccc2)C1 (stereo not shown)	1.38%
COc1ccc(OC)c(/C=C2\N=C(c3cccc(C)c3)OC2=O)c1	8.79%
COC(=O)c1nc2n(n1)C(c1ccc(OC)c(OC)c1OC)C1=C(O)CCCC1=N2 (stereo not shown)	-3.37%
Cc1nc(S)nc(O)c1CCO	0.351%
COc1ccc2c(c1)OCC/C2=N\OC(=O)c1ccccc1-c1ccccc1	-1.92%
Cc1ccc(C)n1-c1ccc(C(=O)O)c(Cl)c1	-2.26%
CCCc1ccc(-c2ccc(OC(F)F)cc2)nc1	1.4%
COCc1cc(C)nc2sc(C(=O)N(c3ccccc3)c3ccccc3)c(N)c12	9.65%
CCCCC1(C(c2ccccc2)c2ccccc2)C(=O)c2ccccc2C1=O	-3.79%
COc1ccc(CNC2CCCC2)cc1C	-1.56%
O=C1/C(=C\c2ccc(O)cc2)Sc2ccccc21	-2.18%
O=[N+]([O-])c1ccc2c(c1)Cc1cc(C3CC3)ccc1-2	-2.51%
N#C/C(=C\c1cc2c(cc1Br)OCO2)C(N)=O	-1.48%
Cc1cccn2c(=O)c3cc(C(=O)NC(C)c4ccccc4)c(=N)n(Cc4ccco4)c3nc12 (stereo not shown)	-1.47%

SMILES	% Inhibition @ 10 uM
OCCN(Cc1ccccc1)Cc1c(Cl)cccc1Cl	-4.14%
COc1ccc2c(oc(=O)c3ccccc32)c1C	-0.357%
O=C(COc1ccccc1Cl)Nc1ccc2nn(-c3ccccc3)nc2c1	-1.88%
CN(CC(=O)N1CCN(Cc2ccccc2)CC1)S(=O)(=O)c1cccc2nsnc12	-1.43%
CCOC(=O)N1CCN(c2c(-c3ccc(C)cc3)c(=O)c2=O)CC1	-2.57%
CC(C)(CNC(=O)c1ccccc1F)CNC(=O)c1ccccc1F	19.1%
CN1C(=O)NC(c2ccccc2)c2cc(Cl)ccc21 (stereo not shown)	-1.96%
CC(C)C[C@H](NC(=O)c1ccccc1-c1ccccc1)C(=O)NCC#N	16.9%
O=C(O)c1ccc(CN2CCCCC2)o1	-4.03% and -6.22%
c1ccc(-c2cc(-c3ccccc3)n(-c3ccccc3)n2)cc1	-6.99%
O=C(NCC1CCCO1)c1ccc(CS(=O)(=O)c2ccc(Br)cc2)o1 (stereo not shown)	2.14%
O=c1c2ccccc2nc(/C=C\c2ccc(O)cc2)n1-c1ccc(O)cc1	3.81%
CCCN1CCN(C(=O)Cn2ncc3c4ccccc4n(Cc4ccccc4F)c3c2=O)CC1	3.4%
Cc1ccc(Cn2c(=O)c3cccnc3n(Cc3cccc(C(F)(F)F)c3)c2=O)cc1	-3.44%
CCOc1ccccc1C(=O)Nc1ccc(C(N)=O)cc1	-1.32%
COc1ccc(OC)c(N(CC(=O)NC(C)(C)C)S(C)(=O)=O)c1	2.02%
Cc1ccc2c(Cl)c(C(=O)Nc3ccc(S(=O)(=O)Nc4ncccn4)cc3)sc2c1	2.38%
CCC(=O)c1ccc(N2CCN(C(=O)c3ccccc3)CC2)c(F)c1	-0.173%
N#Cc1ccc(OCc2cccc3c2N=S=N3)cc1	0.145%
O=C(N1CCCC1)C12CC3CCC(CC(C3)C1)C2	5.66%
Oc1c(C(c2ccccn2)N2CCN(c3ccccc3F)CC2)ccc2cccnc12 (stereo not shown)	0.709%
COc1cc(/C=C2\C(=N)N3N=C(S(=O)(=O)CC(C)C)SC3=NC2=O)ccc1O	0.208%
COc1ccc(CNC(=O)C2CCC(CNS(=O)(=O)c3cccc4nsnc34)CC2)cc1 (stereo not shown)	2.93%
COc1cc(C(=O)NCCC(=O)NCc2cccs2)cc(OC)c1OC	-1.99%
O=C(CN1CCCCCC1)c1ccccc1	-1.96%
CC(C)CSC(SCC(C)C)=C(C#N)C(=O)N1CCCC1	4.33%

SMILES	% Inhibition @ 10 uM
CC(C)NS(=O)(=O)c1cccnc1N1CCN(CCO)CC1	-7.62%
COc1cc(C(=O)O/N=C2/CCSc3ccccc32)cc(OC)c1OC	-1.4%
CCC1CCC(N(C)CCN(CC)CC)CC1 (stereo not shown)	-7.93%
CC(C)CN1CC(C)C(O)(c2ccccc2)CC1C (stereo not shown)	-3.72%
CCN(CC)C(=O)C1CCCN(c2ncnc3c2c(-c2ccccc2)cn3-c2ccc(F)cc2)C1 (stereo not shown)	-0.0781%
CCOc1ccc(N2CC(C(=O)Nc3cccc(OCC)c3)CC2=O)cc1 (stereo not shown)	0.727%
CC(=O)Nc1ccc(NC(=O)C(C)Oc2cc(Cl)c(Cl)cc2Cl)cc1 (stereo not shown)	0.231%
Cc1nnc(NC(=O)CSc2nnc(CNC(=O)c3ccccc3)n2-c2ccc(F)cc2)s1	0.44%
O=C(COc1ccc(S(=O)(=O)NCc2ccccc2)cc1)N1CCN(c2ccccc2)CC1	-0.318%
CC1=C(C(=O)N2CCN(c3ccc(F)cc3)CC2)C(c2ccc(Cl)c(Cl)c2)C(C#N)=C(N)O1 (stereo not shown)	9.61%
CC(=O)c1cccc(NC(=O)C2C3/C=C\CCCCC32)c1 (stereo not shown)	-9.68%
Nc1nonc1-c1nc2ccccc2n1CC(=O)Nc1ccc(F)c(F)c1	2.44%
Clc1ccccc1C1NCCc2[nH]cnc21 (stereo not shown)	-2.63%
Cc1ccccc1OCc1nc(C#N)c(NCc2ccco2)o1	-0.463%
O=C(C1CCCN(S(=O)(=O)c2ccccc2)C1)N1CCCC(C(F)(F)F)C1 (stereo not shown)	0.032%
Cc1cc(Br)ccc1OCC(=O)Nc1ccc(S(=O)(=O)N2CCCC2)cc1	-3.45%
COc1ccc(NC(=O)C2CC(=O)N=C(Nc3nc(C)c4ccccc4n3)N2)cc1 (stereo not shown)	-4.15%
N#Cc1c(N2CCCCC2)ncc2c(O)c3ccccc3nc12	0.431%
C=CCOC(=O)C1=C(C)NC(=O)NC1c1ccc(F)cc1 (stereo not shown)	1.13%
C=CCn1c(COc2ccccc2)nc2ccccc21	-2.24%
Cc1ccc(CNC(=O)C2CCCN(C(=O)c3cc4sccc4n3C)C2)cc1 (stereo not shown)	-3.67%
COc1ccc(C(O)(CCN2CCCCC2)C2CCCCC2)cc1 (stereo not shown)	1.84%
Cc1ccc(C2SC(C)C(=O)N2c2ccc(C)cc2)cc1 (stereo not shown)	-3.44%
Cc1ccc(NC(=O)CN2C(=O)S/C(=C\c3cc(C)n(C)c3C)C2=O)cc1	10.9%
CC(C)C[C@H](NC(=O)c1cc(-c2ccsc2)cc(-c2ccsc2)c1)C(=O)NCC#N	-1.41%
O=C(Nc1nccs1)c1ccc(NC(=O)C(c2ccccc2)c2ccccc2)cc1	-3.09%

SMILES	% Inhibition @ 10 uM
Cc1ccc(NC(=O)c2cnccn2)cc1Cl	-5.2%
COc1cc2c(cc1OC)C1=C(c3ccc4c(c3C1)OCO4)N(C)CC2	-5.41%
CC(C)C[C@H](NC(=O)OCc1ccccc1)C(=O)NC(C#N)c1cc(Br)cs1 (stereo partly shown)	-3.04%
CC(C)(C)Oc1ncc(-c2cccnc2)c(OC(C)(C)C)n1	3.81%
CCCOC(=O)c1ccc(NC(=O)c2ccccc2C)cc1	3.47%
CC(C)c1ccc(OCC(O)CNC(C)(C)C)cc1 (stereo not shown)	-3.93%
Cc1c(Cl)cccc1NC(=O)/C=C/c1ccc(C(C)C)cc1	0.912%
CCOc1c(OC)cccc1C1CC(=O)NC2=C1C(=O)CC(C)(C)C2 (stereo not shown)	2.35%
Cc1c(Cc2ccccc2)sc(NC(=O)CCc2ccccc2)c1C(N)=O	-1.65%
CCCNC(=O)Cn1cc(S(=O)(=O)N2CCCC2)c(S(=O)(=O)N2CCCC2)c1	-1.88%
Cn1c2c(c(=O)n(C)c1=O)C(c1ccc(Br)cc1)C1=C(O)CCCC1=N2 (stereo not shown)	0.726%
COc1ccccc1-n1cc2c(c1-c1ccccc1Cl)c(=O)n(C)c(=O)n2C	2.02%
CCOc1ccc(N(CC(=O)NC(C)(C)C)S(=O)(=O)c2ccc(C)cc2)cc1	2.51%
CC(C)(C)Nc1nc(N2CCOCC2)nc(N2CCOCC2)n1	-4.35%
C=CCN1C(=O)N/C(=C/c2cc(OC)c(O)c(OC)c2)C1=O	7.42%
CC(=O)Nc1ccc(C(=O)N2CCCCCC2)cc1	-14.4%
O=C(O)c1ccc(-c2ccncc2)s1	5.91%
Cc1cc(C)nc(N2CCN(C(=O)c3cccc(Br)c3)CC2)n1	-4.75%
O=C(NC(Cc1ccccc1)Cc1ccccc1)c1ccco1	2.79%
CC(C)CC(C(=O)NCC#N)c1cccc2ccccc12 (stereo not shown)	-8.26%
Oc1cc(O)nc(SCc2ccccc2)n1	0.0345%
Cc1[nH]c(-c2ccc(F)cc2)cc1C(=O)NCc1ccccc1Cl	7.1%
COCCCNC(=O)c1cnc2ccc(S(=O)(=O)N3CC(C)CC(C)C3)cc2c1O (stereo not shown)	-8.86%
O=C(O)CCCCCNS(=O)(=O)c1c(Cl)cccc1Cl	-1.92%
CCN(CC)C(=O)C1CCCN(Cc2cccc3ccccc23)C1 (stereo not shown)	1.48%
